The results in this text go back to publication PMC6919601, “Identification of Plasmodium dipeptidyl aminopeptidase allosteric inhibitors by high throughput screening” (PLoS ONE, 2019).

Out of some 110,000 compounds screened, about 230 (0.21%) showed an effect of 50% or more. Some of the results follow.
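Note: 30 min substrate incubation versus DMSO and 10 µM JCP410 controls.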

This assay deals with DPAP1 (Plasmodium falciparum, UniProt Q8IIJ9). The assay is described as follows: primary screen, percent inhibition; read by cleavage of a fluorogenic dipeptide substrate; higher = more effect of the substance. The arrangement: species or system P. falciparum D10 trophozoite lysates; single well.
DPAP1, sequence (Q8IIJ9 whole entry, looked up): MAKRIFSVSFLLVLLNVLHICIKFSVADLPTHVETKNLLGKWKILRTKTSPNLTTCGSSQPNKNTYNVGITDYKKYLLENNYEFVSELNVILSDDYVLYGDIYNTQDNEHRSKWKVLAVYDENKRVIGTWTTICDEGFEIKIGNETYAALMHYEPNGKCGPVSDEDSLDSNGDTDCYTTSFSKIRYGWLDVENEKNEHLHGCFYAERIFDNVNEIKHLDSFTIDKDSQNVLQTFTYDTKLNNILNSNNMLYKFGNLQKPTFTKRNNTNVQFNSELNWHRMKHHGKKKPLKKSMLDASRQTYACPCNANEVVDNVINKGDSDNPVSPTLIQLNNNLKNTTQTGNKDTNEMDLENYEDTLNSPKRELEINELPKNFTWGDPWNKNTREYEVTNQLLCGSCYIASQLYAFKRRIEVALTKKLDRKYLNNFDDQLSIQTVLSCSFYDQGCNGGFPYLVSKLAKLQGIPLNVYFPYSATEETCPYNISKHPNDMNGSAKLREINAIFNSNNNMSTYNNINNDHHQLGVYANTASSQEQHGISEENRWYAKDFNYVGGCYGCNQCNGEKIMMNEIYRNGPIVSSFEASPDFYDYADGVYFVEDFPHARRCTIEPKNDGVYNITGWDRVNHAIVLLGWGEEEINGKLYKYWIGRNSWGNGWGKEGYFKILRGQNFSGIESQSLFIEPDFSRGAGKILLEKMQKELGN
In the case of `Cc1ccc(CN(CC(=O)Nc2ccc(C)cc2)S(=O)(=O)c2ccccc2)cc1`, the “% Inhibition @ 10 uM” value is given as 3.89%. In the case of `O=Cc1c[nH]c2ccc(S(=O)(=O)N3CCC(Cc4ccccc4)CC3)cc12` it was 5.47%. In the case of `O=C(Nc1cc(N2CCOCC2)ncn1)NC1(C(F)(F)F)Oc2ccc(Cl)cc2O1` (stereo not shown), the “% Inhibition @ 10 uM” value stood at 0.889%. For the compound `CCC1(CC)C(=O)NC(=O)N(Cc2ccccc2)C1=O`, the “% Inhibition @ 10 uM” value stood at 1.7%. In the case of `C(=C\c1ccccc1)/CN1CCN(CCc2ccccc2)CC1` it was 1.74%; in that of `O=S(=O)(c1ccccc1)N1CCN(c2cccc(Cl)c2)CC1`, -2.63%; in that of `O=[N+]([O-])c1cc(CN2CCSCC2)ccc1O`, 3.15%. In the case of `COc1ccc(C(CC(=O)c2ccccc2)S(=O)(=O)c2ccccc2)cc1` (stereo not shown) it was -4.74%; in that of `CCOC(=O)c1sc(NC(=O)Cn2nc(C(F)(F)F)cc2C)c(C(=O)OCC)c1C`, 10.2%. In the case of `Cc1[nH]c2ccccc2c1C(c1cccnc1)N1CCOCC1` (stereo not shown), the “% Inhibition @ 10 uM” value is -5.35%. In the case of `COc1cccc(-c2cc(N)n(S(=O)(=O)c3ccc(C)cc3)n2)c1` it was -2.88%. Under `Cc1ccc2onc(CNC(=O)N3CCCCC3C)c2c1` (stereo not shown) stands 0.568%; under `COc1ccc(NC(=O)c2sccc2C)c(OC)c1`, -13.8%; under `CCCCCCn1c(=O)c(C(=O)Nc2ccc(F)cc2)c(O)c2ccccc21`, 3.05%.

In the case of `Cc1ccc(C(=O)CN2C(C(=O)c3ccccc3)=C(O)c3ccccc3S2(=O)=O)c(C)c1`, the “% Inhibition @ 10 uM” value stood at 0.472%.

Take `COC(=O)c1cc2sc(C)cc2n1CC(=O)N(C)C1CCCCC1`: the “% Inhibition @ 10 uM” value is -6.95%.

Turning to `CC1=CCC2C(=O)N(c3cc(C)on3)C(=O)C2C1` (stereo not shown), the “% Inhibition @ 10 uM” value is reported as -1.33%. In the case of `N#Cc1ccccc1NC(=O)Nc1ccc(Cl)cc1` it was 0.132%; in that of `Fc1ccc(C2Nc3ccc(F)cc3C3C=CCC32)cc1` (stereo not shown), 16.5%. Under `CC(=O)N1N=C(c2ccc(O)cc2)CC1c1ccc(Cl)cc1` (stereo not shown) stands -1.45%; under `Cc1ccc(/C=C(\NC(=O)c2ccccc2)C(=O)Nc2ccc(Br)cc2)o1`, -3.46%. For `COc1ccc(NC(=O)c2ccc(-c3ccccc3)cc2)c([N+](=O)[O-])c1`, the “% Inhibition @ 10 uM” value is -1.29%. Under `COC(=O)c1cc2oc(C)cc2n1Cc1ccccc1C` stands -5.72%. Under `C=CCN1C(=O)NC(=O)/C(=C\c2ccc3c(c2)OCO3)C1=O` stands -2%. Under `CN1CCN(C(=O)CCCn2sc3ccccc3c2=O)CC1` stands 2.21%; under `O=C1C(c2[nH]c3ccccc3c2O)=Nc2ccccc21`, -0.864%. With `COc1ccc2[nH]c(C(=O)N3CCOCC3)cc2c1`, the “% Inhibition @ 10 uM” value was 3.65%. For `COc1ccc(C2CC(c3ccccc3)=NN2S(=O)(=O)c2ccc(C)cc2)cc1` (stereo not shown), the “% Inhibition @ 10 uM” value is given as -2.72%.

Turning to `Cn1ncc(Cl)c1C(=O)NCc1cc(C(C)(C)C)[nH]n1`, the “% Inhibition @ 10 uM” value is on record as -2.45%. Under `C=CCC1NC2(CCCC2)Cc2cc(OC)c(OC)cc21` (stereo not shown) stands 3.44%.

`O=C(c1cnn2c(C(F)(F)F)cc(-c3ccc(Br)cc3)nc12)N1CCCCCC1`: the “% Inhibition @ 10 uM” value was -0.142%. Consider `CCCCCCNC(=O)CC(NS(=O)(=O)c1ccc(F)cc1)c1ccc(OC)cc1` (stereo not shown), for which the “% Inhibition @ 10 uM” value was -2.14%.

Turning to `CCCC(=O)Nc1[nH]nc2nc(C)cc(C)c12`, the “% Inhibition @ 10 uM” value is given as 2.18%. Turning to `Cc1cc(N2CCNCC2)n2c(nc3ccccc32)c1C#N`, the “% Inhibition @ 10 uM” value is -4.32%. In the case of `CC1CC(C)CN(C(=O)c2ccc(-c3ccccc3)s2)C1` (stereo not shown) it was -2.17%; in that of `Cc1nc2c(-c3ccc(F)cc3)c(C)nn2c(C)c1CC(=O)N1CCOCC1`, -6.09%; in that of `COC(=O)c1sccc1NC(=O)c1cc2c(s1)-c1ccccc1S(=O)(=O)C2`, 2.57%. Under `CCCCN(C)C(=O)c1sc2ncn(CC)c(=O)c2c1C` stands 4.8%. Under `O=C(CCCn1c2ccccc2c2cnnc(O)c21)NCc1ccccn1` stands 1.38%; under `CCN(CC)CCCNC(=O)Cn1ncn2c(cc3sc(C)cc32)c1=O`, 4.84%. `COC(=O)C1=C(C)NC(=O)CC1c1ccccc1Cl` (stereo not shown): the “% Inhibition @ 10 uM” value came out at 0.177%. Under `O=C(Nc1nc2ccc(Cl)cc2s1)c1cccc(F)c1` stands 0.316%; under `CCCc1nn(-c2ccc(F)cc2)c(O)c1/C=N/CCCN(CC)CC`, -4.91%. Under `CC1CC(C)CN(C(=O)c2ccc(CS(=O)(=O)Cc3ccc(F)cc3)o2)C1` (stereo not shown) stands 0.718%; under `O=C(NCc1ccc2c(c1)OCO2)c1ccc(CNS(=O)(=O)c2ccccc2)cc1`, 1.9%; under `COc1cccc(C2=N/C(=C\c3ccccc3C(F)(F)F)C(=O)O2)c1`, -2.99%. In the case of `CCOC(=O)c1c(NC(=S)Nc2ccccc2)sc2c1CCN(C)C2` it was 35.4%; in that of `Clc1ccc(-c2noc3ncnc(N4CCC(c5ccccc5)C4)c23)cc1` (stereo not shown), -2.19%. On to `C=Cn1c2ccccc2c2nc3ccccc3nc21`, for which the “% Inhibition @ 10 uM” value is -0.0235%. In the case of `CC1CCN(C(=O)C(c2ccccc2)N2Cc3ccccc3C2=O)CC1` (stereo not shown) it was 0.868%; in that of `O=C(CCc1nnc2n(Cc3ccc(F)cc3)c(=O)c3ccccc3n12)NCCN1CCCC1`, 4.16%; in that of `CC(=O)Nc1ccc(C(=O)/C=C\c2ccccc2)cc1`, -6.99%. For `CCOc1ccc(CCNC(=O)c2ccc(CS(=O)(=O)c3ccc(Cl)cc3)o2)cc1OCC`, the “% Inhibition @ 10 uM” value was 0.718%. In the case of `CC(C)NC(=O)c1ccccc1NS(=O)(=O)c1ccc(Br)s1` it was 6.7%; in that of `CCCN1CCN(C(=O)c2nc(-c3ccc(Cl)cc3)n3c2CCCCC3)CC1`, 7.2%. Under `CCc1nc2ccccc2c(NC(=O)CN2CCCC2)c1C` stands -4.96%. On to `O=C(Cn1c(=O)c2cccn2c2cccnc21)NCc1ccc(F)cc1`, for which the “% Inhibition @ 10 uM” value is -7.56%. In the case of `CCCS(=O)(=O)N1CCCC(C(=O)NCCCN2CCCC2=O)C1` (stereo not shown) it was -0.0542%. For `CC(C)c1ccc2c(c1)C(=O)Cc1cc(N)ccc1S2`, the “% Inhibition @ 10 uM” value was -8.26%.

`Cc1c(CN(C)C(=O)CCn2nc(C(F)(F)F)c(Br)c2C)cnn1C`: the “% Inhibition @ 10 uM” value is -0.545%.

In the case of `COc1ccccc1OCc1nc(-c2ccc(Cl)cc2Cl)no1`, the “% Inhibition @ 10 uM” value was -4.51%. In the case of `CCn1cc(Cl)c(C(=O)Nc2ccn(C34CC5CC(CC(C5)C3)C4)n2)n1` it was -1.98%; in that of `COc1ccc(C(=O)N2CCC3(CC2)N=C(c2ccccc2)C(=O)N3)c(OC)c1`, 1.25%.

Consider `CCCCCNC(=O)/C(NC(=O)c1ccccc1)=C(/Sc1ccc(Cl)cc1)c1ccccc1`, for which the “% Inhibition @ 10 uM” value was -2.62%.
